The values that follow come from paper PMC9911399, “Two distinct binding modes provide the RNA-binding protein RbFox with extraordinary sequence specificity”.

B1: UUAGAUG (DNA:RNA)
RNA: GGGAGACCGGAAUUCAGAUUGUCCUUAGAUGUUAAAUCCCGUCGUAGCCACCA
DNA 1: CAATCTGAATTCCGGTCTCCC
DNA 2: TGGTGGCTACGACGGGATT
B2: UCACAAA (DNA:RNA)
RNA: B1 RNA with U26C, G28C, U30A, G31A
DNA 1: CAATCTGAATTCCGGTCTCCC
DNA 2: TGGTGGCTACGACGGGATT
B3: GAUAUUG (DNA:RNA)
RNA: B1 RNA with U25G, U26A, A27U, G28A, A29U
DNA 1: CAATCTGAATTCCGGTCTCCC
DNA 2: TGGTGGCTACGACGGGATT
B4: AAUGACA (DNA:RNA)
RNA: B1 RNA with U25A, U26A, A27U, U30C, G31A
DNA 1: CAATCTGAATTCCGGTCTCCC
DNA 2: TGGTGGCTACGACGGGATT
B5: CACCGAG (DNA:RNA)
RNA: B1 RNA with U25C, U26A, A27C, G28C, A29G, U30A
DNA 1: CAATCTGAATTCCGGTCTCCC
DNA 2: TGGTGGCTACGACGGGATT
B6: CCUGUGG (DNA:RNA)
RNA: B1 RNA with U25C, U26C, A27U, A29U, U30G
DNA 1: CAATCTGAATTCCGGTCTCCC
DNA 2: TGGTGGCTACGACGGGATT
B7: CGUGCAA (DNA:RNA)
RNA: B1 RNA with U25C, U26G, A27U, A29C, U30A, G31A
DNA 1: CAATCTGAATTCCGGTCTCCC
DNA 2: TGGTGGCTACGACGGGATT
B8: GGUGAGC (DNA:RNA)
RNA: B1 RNA with U25G, U26G, A27U, U30G, G31C
DNA 1: CAATCTGAATTCCGGTCTCCC
DNA 2: TGGTGGCTACGACGGGATT
B9: CGCUUGU (DNA:RNA)
RNA: GGGAGACCGGAAUUCAGAUUGUCCCGCUUGUUUAAAUCCCGUCGUAGCCACCA
DNA 1: CAATCTGAATTCCGGTCTCCC
DNA 2: TGGTGGCTACGACGGGATT
B10: CUAUUUC (DNA:RNA)
RNA: B9 RNA with G26U, C27A, G30U, U31C
DNA 1: CAATCTGAATTCCGGTCTCCC
DNA 2: TGGTGGCTACGACGGGATT
B11: AGUAACU (DNA:RNA)
RNA: B9 RNA with C25A, C27U, U28A, U29A, G30C
DNA 1: CAATCTGAATTCCGGTCTCCC
DNA 2: TGGTGGCTACGACGGGATT
B12: GAUGCGA (DNA:RNA)
RNA: B9 RNA with C25G, G26A, C27U, U28G, U29C, U31A
DNA 1: CAATCTGAATTCCGGTCTCCC
DNA 2: TGGTGGCTACGACGGGATT
B13: CUUCCGG (DNA:RNA)
RNA: B9 RNA with G26U, C27U, U28C, U29C, U31G
DNA 1: CAATCTGAATTCCGGTCTCCC
DNA 2: TGGTGGCTACGACGGGATT
B14: GGAGCUG (DNA:RNA)
RNA: B1 RNA with U25G, U26G, A29C
DNA 1: CAATCTGAATTCCGGTCTCCC
DNA 2: TGGTGGCTACGACGGGATT
B15: UUUUAAA (DNA:RNA)
RNA: B1 RNA with A27U, G28U, U30A, G31A
DNA 1: CAATCTGAATTCCGGTCTCCC
DNA 2: TGGTGGCTACGACGGGATT
B16: CUGAAAU (DNA:RNA)
RNA: B9 RNA with G26U, C27G, U28A, U29A, G30A
DNA 1: CAATCTGAATTCCGGTCTCCC
DNA 2: TGGTGGCTACGACGGGATT
B17: GGUAACC (DNA:RNA)
RNA: B9 RNA with C25G, C27U, U28A, U29A, G30C, U31C
DNA 1: CAATCTGAATTCCGGTCTCCC
DNA 2: TGGTGGCTACGACGGGATT
B18: AGAUUUC (DNA:RNA)
RNA: B9 RNA with C25A, C27A, G30U, U31C
DNA 1: CAATCTGAATTCCGGTCTCCC
DNA 2: TGGTGGCTACGACGGGATT
B19: ACGGUAA (DNA:RNA)
RNA: B9 RNA with C25A, G26C, C27G, U28G, G30A, U31A
DNA 1: CAATCTGAATTCCGGTCTCCC
DNA 2: TGGTGGCTACGACGGGATT
B20: GCACUCA (DNA:RNA)
RNA: B9 RNA with C25G, G26C, C27A, U28C, G30C, U31A
DNA 1: CAATCTGAATTCCGGTCTCCC
DNA 2: TGGTGGCTACGACGGGATT

Numbering of substitutions follows the chain as printed; changes in the protein carry UniProt numbers. Some of the results follow.

The assay concerns the target T1, RBFOX1 RRM (Homo sapiens, UniProt Q9NWB1 109-208).
T1 sequence: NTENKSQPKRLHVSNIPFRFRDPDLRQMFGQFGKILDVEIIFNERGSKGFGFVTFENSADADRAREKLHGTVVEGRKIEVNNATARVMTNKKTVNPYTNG
Description: EMSA; HiTS-Eq, 1 nM pool, 10 min; buffer printed only for the single-RNA assays: 10 mM Tris pH 7.5, 150 mM NaCl, 3.4 mM EDTA, 0.001% NP-40, 30 C. The following applies: tags: His6 N-terminal (pET28a); label: 5' 32P. In outline: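 Purified RbFox RRM, wild type or mutant, was incubated for 10 min in 50 µL with 1 nM of a 5′-radiolabelled RNA pool carrying 7 randomized nucleotides, whose flanks were annealed to DNA oligonucleotides, over a series of increasing protein concentrations. Unbound RNA was resolved on 8% native PAGE, cut out, reverse-transcribed, barcoded by PCR and sequenced on an Illumina HiSeq 2500. Relative association constants were derived from changes in read counts for each RNA species versus the control reaction and normalised to the cognate motif.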
Consider B1, for which the binding signal was 0.0112 KA relative to UGCAUGU.

For the molecule B2, the binding signal was 0.00202 KA relative to UGCAUGU. B3: the binding signal is 0.0154 KA relative to UGCAUGU. Then B4, with 0.000963 KA relative to UGCAUGU; and B5, with 0.00504 KA relative to UGCAUGU. Next, B6: 0.00622 KA relative to UGCAUGU; B7: 0.00925 KA relative to UGCAUGU. Next, B8: 0.0174 KA relative to UGCAUGU. Regarding B9, the binding signal was 0.0265 KA relative to UGCAUGU.

Consider B10, for which the binding signal is 0.00361 KA relative to UGCAUGU. Take B11: the binding signal was 0.00464 KA relative to UGCAUGU. B12: the binding signal is 0.0154 KA relative to UGCAUGU. Turning to B13, the binding signal is 0.00903 KA relative to UGCAUGU. Consider B14, for which the binding signal is 0.0192 KA relative to UGCAUGU. With B15, the binding signal was 0.00266 KA relative to UGCAUGU.

Turning to B16, the binding signal is 0.00704 KA relative to UGCAUGU.

On to B17, for which the binding signal was 0.0112 KA relative to UGCAUGU. Then B18, with 0.00933 KA relative to UGCAUGU. Take B19: the binding signal was 0.00861 KA relative to UGCAUGU. For B20, the binding signal is 0.00606 KA relative to UGCAUGU.
